In all, about 410,000 compounds went through this assay and about 5,000 (1.2%) were called active. Inconclusive means that the source gave no clear call. Such entries were picked first, then a sample of the others. The call rests on the fitted dose curve; in most records, active means well fitted inhibition curve with a large enough effect; inconclusive means small, poorly fitted or top-dose-only effect; inactive means no such curve, though single readings can be large or run the other way. Potencies beside an inconclusive call are fits to weak or partial responses and may not hold up.
Assay: qHTS for Inhibitors of TGF-b; further: nearly all actives have a fitted effect of over 65% in size
Details: HepG2 CAGA-GFP TGF-b/SMAD3 reporter, GFP fluorescence, 18 h, TGF-beta stimulated, 500 pg/mL final; series mostly up to 46.1 µM
In short: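 Read-out: total well GFP (ex488/em500-530) summed from mean per-cell fluorescence. Cells: HEPG2 CAGA-GFP, 1% FBS DMEM, 18 h at 37 degrees C with 500 pg/mL final TGF-beta. Unstimulated wells served as the full-inhibition control; stimulated DMSO wells = 0%.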
Potency means the concentration at half of the fitted maximal effect; tags describe the fitted curve by direction and shape.

Compound	Potency
Cc1cc(C)n(-c2cc(N3CCN(S(=O)(=O)c4ccc(Cl)cc4)CC3)ccc2[N+](=O)[O-])n1	inconclusive: 11.2 µM [inhibitor, partial curve, poor fit]
O=C(Cn1ccc2ccccc2c1=O)NCCC(=O)N1CCN(c2cccc(Cl)c2)CC1	inactive
COC(=O)c1ccc(CN2CCC(n3nccc3NC(=O)C3CC3)CC2)cc1	inconclusive: 35.5 µM [inhibitor, single point]
Cc1cscc1-c1nc(NCC2CC2)nc2ccsc12	inactive
O=C(c1ccc(CN2CCc3ccccc3C2)cc1)N1CCc2ccccc2C1	inactive
COC(=O)c1ccc(OC)cc1OCC(=O)N1CCN(c2ccc(F)cc2)CC1	inconclusive: 6.31 µM [inhibitor, single point]
CC(=O)C(C)n1c(CN2CCN(C(=O)c3ccco3)CC2)nc2c1c(=O)n(C)c(=O)n2C (stereo unspecified)	inactive
CC(=O)Nc1ccc(NC(=O)CSc2nc3ccccc3nc2N2CCOCC2)cc1	inconclusive: 0.224 µM [inhibitor, full curve, poor fit]
O=C(CN1CCN(C(=O)c2ccc(-c3nc4ccccc4s3)o2)CC1)Nc1ccc(F)cc1	inconclusive: 11.2 µM [inhibitor, single point]
O=C(c1ccc(N2CCCC2)c([N+](=O)[O-])c1)N1CCN(S(=O)(=O)c2ccccc2)CC1	inactive
COc1ccccc1Cc1c(-c2ccc(C)cc2)nc2c(C)cc(Br)cn12	inconclusive: 10 µM [inhibitor, partial curve]
O=C(C1=C[C@@H](c2csc3ccccc23)C[C@@H](OCc2ccc(CO)cc2)O1)N1CCN(Cc2ccccc2)CC1	inconclusive: 0.708 µM [inhibitor, full curve, poor fit]
Clc1ccc(C2=Nn3c(nnc3-c3n[nH]c4c3CCC4)SC2)cc1	inconclusive: 35.5 µM [inhibitor, single point]
O=C(Cn1nc(Cc2cccnc2)c2ccccc2c1=O)N1CCN(c2ccc(F)cc2)CC1	inconclusive: 12.6 µM [inhibitor, partial curve]
COc1ccc(C(C)=O)cc1CC1(C)C(=O)Nc2ccc(-c3cccc(C(F)(F)F)c3)cc21 (stereo unspecified)	active: 15.8 µM
CC(OC(=O)/C=C/c1ccco1)C(=O)Nc1cccc([N+](=O)[O-])c1 (stereo unspecified)	inactive
Cc1ccnc(NC(=O)C2CCN(S(=O)(=O)c3c(C)c(C)cc(C)c3C)CC2)c1	active: 11.2 µM
COc1ccccc1-c1ccc2c(c1)C(C)(Cc1cccc(F)c1)C(=O)N2 (stereo unspecified)	inconclusive: 25.1 µM [inhibitor, single point]
C=CCNc1ncnc2c1[nH]c1ccc(Cl)cc12	inconclusive: 7.94 µM [inhibitor, partial curve, poor fit]
COc1cc2c(cc1OC)CN(C(=O)c1nn(Cc3ccccc3)c(=O)c3ccccc13)CC2	inactive
CC(C(=O)NCC(=O)Nc1ccc(F)c(F)c1F)N1CCN(c2ccc(O)cc2)CC1 (stereo unspecified)	inactive
Cc1c(C(O)CN2CCN(Cc3ccc4c(c3)OCO4)CC2)c2ccccc2n1C (stereo unspecified)	inconclusive: 3.98 µM [inhibitor, partial curve, poor fit]

Compound	Potency
CCCCN(Cc1ccccc1)S(=O)(=O)c1ccc2c(c1)CCN2C(=O)C1CCC1	inactive
CCOc1c(OC)ccc2c3c(c(=O)oc12)CCCC3	inactive
COC(=O)c1cnc(Nc2nc(C(N)COCc3ccccc3)cs2)nc1C(F)(F)F (stereo unspecified)	inconclusive: 25.1 µM [inhibitor, single point]
COC(=O)c1ccc(OCC2c3cc(OC)c(OC)cc3CCN2C(=O)c2cccc(C)c2)cc1 (stereo unspecified)	inconclusive: 20 µM [inhibitor, single point]
CCOc1ccc(S(=O)(=O)N2CCN(C(=O)c3ccc(Cl)c(S(=O)(=O)N4CCOCC4)c3)CC2)cc1	inactive
CCCCCCNS(=O)(=O)c1ccc(NC(=O)C2CCCO2)cc1 (stereo unspecified)	inconclusive: 35.5 µM [inhibitor, single point]
Oc1cccc(C(O)CNCc2ccc(OCc3ccc(Cl)cc3Cl)cc2)c1 (stereo unspecified)	inconclusive: 31.6 µM [inhibitor, single point]
COc1ccc(-c2nnc3ccc(SCC(=O)NCc4ccco4)nn23)cc1	inconclusive: 5.62 µM [inhibitor, partial curve]
CCOC(=O)c1cccc(NS(=O)(=O)c2cc(Br)cc3c2N(C(=O)C2CC2)CC3)c1	inconclusive: 22.4 µM [inhibitor, single point]
COc1ccc2c(c1)NC(c1ccc(F)cc1)=NC(c1ccc(F)cc1)=N2	inconclusive: 2.51 µM [inhibitor, single point]
C[C@H]1NC(=O)[C@@]2(C)[C@@H](c3ccccc3)[C@H]3COc4ccccc4[C@H]3N2C1=O	inconclusive: 5.62 µM [inhibitor, single point]
CCN1CCN(Cc2ccc(NC(=O)c3cc(NC(=O)c4cncc(-c5cccs5)c4)cc(OC)c3)cc2C(F)(F)F)CC1	active: 14.1 µM
Cc1cccc(C(=O)Nc2scc(-c3ccc(Br)cc3)c2C(=O)O)c1	inactive
O=C(COc1cccc(C(F)(F)F)c1)Nc1ccc(S(=O)(=O)N2CCCCC2)cc1	inconclusive: 35.5 µM [inhibitor, single point]
COCCCNC(=O)C[C@H]1C[C@H](C(=O)N2CCCCC2)[C@@]2(CCc3ccccc3)c3[nH]c4cc(-c5ccco5)ccc4c3CCN2C1=O	inconclusive: 35.5 µM [inhibitor, single point]
Cc1cc(C)cc(NS(=O)(=O)c2ccc(-c3cc(C)no3)cc2)c1	active: 12.6 µM
O=C1CCNc2c(Cl)cc(Cl)cc21	inconclusive: 1.78 µM [inhibitor, partial curve, poor fit]
Cc1ccc(CCNC(=O)c2ccc3c(c2)N(Cc2cc(C)ccc2C)C(=O)c2ccccc2S3=O)cc1 (stereo unspecified)	inconclusive: 3.16 µM [inhibitor, partial curve, poor fit]
Cc1cc(OCC(=O)N[C@@H](CSCc2ccccc2)C(=O)O)c2c(C)c(C)c(=O)oc2c1	inactive
CCCCC1=C(C(=O)OCC)C(C(=O)OCC)Oc2ccccc21 (stereo unspecified)	inconclusive: 5.62 µM [inhibitor, full curve]
CC1=C(C(N)=O)C(c2ccccc2)n2nc(-c3ccncc3)nc2N1 (stereo unspecified)	inactive
Cn1cc(-c2coc3c(C(=O)NCc4cccnc4)cccc23)cn1	inactive

Compound	Potency
CSc1ncccc1C(=O)OCC(=O)N1CCOCC1	inconclusive: 35.5 µM [inhibitor, single point]
COc1ccccc1-c1c(C)nn2c(N)c(-c3ccccc3)cnc12	inconclusive: 11.2 µM [inhibitor, partial curve, poor fit]
COc1ccc(-n2c(COc3cccc4ccccc34)nnc2SCC#N)cc1	inconclusive: 35.5 µM [inhibitor, single point]
O=C(N/N=C/C(Cl)=C\c1ccccc1)c1ccco1	inactive
FC(F)(F)c1ccc(-c2nc3ccccc3s2)cc1	inconclusive: 3.16 µM [inhibitor, partial curve, poor fit]
CCc1ccccc1NC(=O)CSc1ncc2c(n1)-c1ccccc1N(C)S2(=O)=O	inactive
COc1cccc(NC(=O)Cn2c(=O)n(Cc3nc(-c4ccccc4)no3)c(=O)c3ccccc32)c1	inconclusive: 11.2 µM [inhibitor, single point]
Cc1ccc(C(=O)OCC(=O)NC2CCCC2)cc1	inactive
CCC(=O)Nc1ccc(S(=O)(=O)NCc2cccn2Cc2cccc(C)c2)cc1	inconclusive: 12.6 µM [inhibitor, single point]
C1CCN(c2nc3nonc3nc2N2CCCC2)C1	inactive
Cc1ccc(OCC(=O)N(Cc2nnc(-c3ccccc3Cl)o2)C2CC2)cc1C	inactive
Cc1cc(C)c2c(CN(Cc3ccccc3)Cc3ccccc3)cc(=O)oc2c1	inconclusive: 6.31 µM [inhibitor, full curve]
CCCC(=Nc1ccccc1OC)C1=C(O)CC(c2ccccc2)CC1=O (stereo unspecified)	inactive
Cc1ccc(NC(=S)/C(=C(\[O-])c2ccc(F)cc2)[n+]2ccccc2)cc1	inconclusive: 5.62 µM [inhibitor, single point]
Cc1cc(/C=N/NC(=O)C(=O)NCc2ccccn2)c(C)n1-c1cccc(Br)c1	inconclusive: 10 µM [inhibitor, partial curve, poor fit]
COc1ccc([N+](=O)[O-])cc1NCC(=O)Nc1cccc(S(=O)(=O)N2CCCC2)c1	inconclusive: 3.98 µM [inhibitor, full curve, poor fit]
CCOC(=O)[C@H]1[C@H]2COc3ccc(Cl)cc3[C@@H]2N2C(=O)c3ccc(C)cc3NC(=O)[C@@]12C	inactive
COC/C=C/C1=CC2=CC(=O)C(C)(OC(=O)c3cnc4ccccc4n3)C(=O)C2=CN1Cc1ccccc1 (stereo unspecified)	active: 11.2 µM
C[C@@H]1CN([C@H](C)CO)C(=O)c2cc(NC(=O)C3CCCCC3)ccc2O[C@@H]1CN(C)Cc1ccc(C(F)(F)F)cc1	inconclusive: 0.562 µM [inhibitor, full curve, poor fit]
CCOC(=O)[C@@H]1[C@H]2COc3ccccc3[C@H]2N2C(=O)N(c3ccc(Cl)cc3)C(=O)[C@@]12C	inactive
O=C(NNC(=O)c1ccncc1)Nc1ccc(Br)cc1	inactive
NS(=O)(=O)c1ccc(CCNC(=O)c2ccc([N+](=O)[O-])s2)cc1	inconclusive: 14.1 µM [inhibitor, partial curve, poor fit]
